Source: publication PMC7144912 (Nucleic Acids Research, 2020)

Assays:
[1] = target: catalytic domain of human DNMT3B (3B-CD, residues 571–853) (human, UniProt Q9UBC3 571-853); test: SEC
[2] = target: catalytic domain of human DNMT3B, Q772R mutant (human, UniProt Q9UBC3 571-853, Q772R); test: crystal structure

stoichiometry N [1]: 1
binding result [2]: binds
B1: catalytic domain of human DNMT3L (3L-CD, […]) (domain or fragment)
chain: not shown
